According to paper PMC12820563:
Some of the results follow. The list includes weakly bound sequences.

The sequences below were run against T1, MBP-FoxP3dN (UniProt Q99JB6) (assay: PD-seq (MBP pull-down with sequencing)). Conditions: 20 mM Tris-HCl pH 7.5, 100 mM NaCl, 1.5 mM MgCl2, 0.4 uM protein, 0.1 uM dsDNA library, 30 min, room temperature, amylose pull-down; high values mean tight binding; double strand, one strand shown.
T1 sequence: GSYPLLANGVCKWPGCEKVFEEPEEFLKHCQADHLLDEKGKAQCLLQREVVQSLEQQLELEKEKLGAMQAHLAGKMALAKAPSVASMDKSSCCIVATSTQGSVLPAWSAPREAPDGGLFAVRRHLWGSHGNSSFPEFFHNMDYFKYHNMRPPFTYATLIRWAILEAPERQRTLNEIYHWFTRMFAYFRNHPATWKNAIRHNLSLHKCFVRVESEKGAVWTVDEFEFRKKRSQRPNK

Sequence	binding signal (RPM ratio (pull-down/input))
GATGATTGTTCTCCCAGCTGATGAATTAGTGGGCTCGAGTAAACAAATTTTCCTAATCTTTCTGTTCAAGCGCCATCTAC	0.789
GATGATTGTTCTCCCAGCTGATGAATTGCACTCATCGAGTAAACAAATTTTCCTAATCTTTCTGTTCAAGCGCCATCTAC	1.32
GATGATTGTTCTCCCAGCTGATGAATTGTCTTCTTCGAGTAAACAAATTTTCCTAATCTTTCTGTTCAAGCGCCATCTAC	0.478
GATGATTGTTCTCCCAGCTGATGAATTTAGCTCATCGAGTAAACAAATTTTCCTAATCTTTCTGTTCAAGCGCCATCTAC	0.579
GATGATTGTTCTCCCAGCTGATGAATTTGCTTGTTCGAGTAAACAAATTTTCCTAATCTTTCTGTTCAAGCGCCATCTAC	6.99
GATGATTGTTCTCCCAGCTGATGAATTTCTGACCTCGAGTAAACAAATTTTCCTAATCTTTCTGTTCAAGCGCCATCTAC	0.212
GATGATTGTTCTCCCAGCTGATGAATTCTGGTAATCGAGTAAACAAATTTTCCTAATCTTTCTGTTCAAGCGCCATCTAC	0.504
GATGATTGTTCTCCCAGCTGATGAATTAGGTGGGTCGAGTAAACAAATTTTCCTAATCTTTCTGTTCAAGCGCCATCTAC	0.579
GATGATTGTTCTCCCAGCTGATGAATTGGCTGGATCGAGTAAACAAATTTTCCTAATCTTTCTGTTCAAGCGCCATCTAC	0.228
GATGATTGTTCTCCCAGCTGATGAATTCGGGATATCGAGTAAACAAATTTTCCTAATCTTTCTGTTCAAGCGCCATCTAC	0.379
GATGATTGTTCTCCCAGCTGATGAATTGGAATACTCGAGTAAACAAATTTTCCTAATCTTTCTGTTCAAGCGCCATCTAC	0.453
GATGATTGTTCTCCCAGCTGATGAATTTATATTCTCGAGTAAACAAATTTTCCTAATCTTTCTGTTCAAGCGCCATCTAC	2.1
GATGATTGTTCTCCCAGCTGATGAATTGAGATCCTCGAGTAAACAAATTTTCCTAATCTTTCTGTTCAAGCGCCATCTAC	0.341
GATGATTGTTCTCCCAGCTGATGAATTGAAACGGTCGAGTAAACAAATTTTCCTAATCTTTCTGTTCAAGCGCCATCTAC	0.272
GATGATTGTTCTCCCAGCTGATGAATTACGCTTGTCGAGTAAACAAATTTTCCTAATCTTTCTGTTCAAGCGCCATCTAC	3.3
GATGATTGTTCTCCCAGCTGATGAATTGCTCAGATCGAGTAAACAAATTTTCCTAATCTTTCTGTTCAAGCGCCATCTAC	0.345
GATGATTGTTCTCCCAGCTGATGAATTAACTCGATCGAGTAAACAAATTTTCCTAATCTTTCTGTTCAAGCGCCATCTAC	0.241
GATGATTGTTCTCCCAGCTGATGAATTATAATCCTCGAGTAAACAAATTTTCCTAATCTTTCTGTTCAAGCGCCATCTAC	0.409
GATGATTGTTCTCCCAGCTGATGAATTCGGACTGTCGAGTAAACAAATTTTCCTAATCTTTCTGTTCAAGCGCCATCTAC	0.552
GATGATTGTTCTCCCAGCTGATGAATTCAGACCGTCGAGTAAACAAATTTTCCTAATCTTTCTGTTCAAGCGCCATCTAC	0.328

Sequence	binding signal (RPM ratio (pull-down/input))
GATGATTGTTCTCCCAGCTGATGAATTCACTGAGTCGAGTAAACAAATTTTCCTAATCTTTCTGTTCAAGCGCCATCTAC	0.219
GATGATTGTTCTCCCAGCTGATGAATTTGGAGAGTCGAGTAAACAAATTTTCCTAATCTTTCTGTTCAAGCGCCATCTAC	0.307
GATGATTGTTCTCCCAGCTGATGAATTCCGTCACTCGAGTAAACAAATTTTCCTAATCTTTCTGTTCAAGCGCCATCTAC	1.42
GATGATTGTTCTCCCAGCTGATGAATTAACCCACTCGAGTAAACAAATTTTCCTAATCTTTCTGTTCAAGCGCCATCTAC	0.342
GATGATTGTTCTCCCAGCTGATGAATTGGTTACATCGAGTAAACAAATTTTCCTAATCTTTCTGTTCAAGCGCCATCTAC	0.681
GATGATTGTTCTCCCAGCTGATGAATTTAAAGCTTCGAGTAAACAAATTTTCCTAATCTTTCTGTTCAAGCGCCATCTAC	0.325
GATGATTGTTCTCCCAGCTGATGAATTCATCGAATCGAGTAAACAAATTTTCCTAATCTTTCTGTTCAAGCGCCATCTAC	0.299
GATGATTGTTCTCCCAGCTGATGAATTGGCAGTCTCGAGTAAACAAATTTTCCTAATCTTTCTGTTCAAGCGCCATCTAC	0.485
GATGATTGTTCTCCCAGCTGATGAATTCTAGAAGTCGAGTAAACAAATTTTCCTAATCTTTCTGTTCAAGCGCCATCTAC	0.2
GATGATTGTTCTCCCAGCTGATGAATTAGGAGTCTCGAGTAAACAAATTTTCCTAATCTTTCTGTTCAAGCGCCATCTAC	1.01
GATGATTGTTCTCCCAGCTGATGAATTGGCCGCCTCGAGTAAACAAATTTTCCTAATCTTTCTGTTCAAGCGCCATCTAC	0.56
GATGATTGTTCTCCCAGCTGATGAATTCAAGTAATCGAGTAAACAAATTTTCCTAATCTTTCTGTTCAAGCGCCATCTAC	0.474
GATGATTGTTCTCCCAGCTGATGAATTAAGGGTCTCGAGTAAACAAATTTTCCTAATCTTTCTGTTCAAGCGCCATCTAC	0.587
GATGATTGTTCTCCCAGCTGATGAATTCGTAAATTCGAGTAAACAAATTTTCCTAATCTTTCTGTTCAAGCGCCATCTAC	0.402
GATGATTGTTCTCCCAGCTGATGAATTTACCGGGTCGAGTAAACAAATTTTCCTAATCTTTCTGTTCAAGCGCCATCTAC	0.276
GATGATTGTTCTCCCAGCTGATGAATTGACTGGTTCGAGTAAACAAATTTTCCTAATCTTTCTGTTCAAGCGCCATCTAC	0.364
GATGATTGTTCTCCCAGCTGATGAATTTACAACATCGAGTAAACAAATTTTCCTAATCTTTCTGTTCAAGCGCCATCTAC	1.26
GATGATTGTTCTCCCAGCTGATGAATTGTTGCATTCGAGTAAACAAATTTTCCTAATCTTTCTGTTCAAGCGCCATCTAC	7.63
GATGATTGTTCTCCCAGCTGATGAATTCTGCTCTTCGAGTAAACAAATTTTCCTAATCTTTCTGTTCAAGCGCCATCTAC	0.557
GATGATTGTTCTCCCAGCTGATGAATTAATACTTTCGAGTAAACAAATTTTCCTAATCTTTCTGTTCAAGCGCCATCTAC	0.478
